Source: US20080124404A1 (priority 2006, published 2008)

Key:
[1] = Biochemical analyses of hamster blood samples
[2] = test system: LDLR-mediated ligand uptake in HepG2 cells; assay: Dil-LDL uptake assay in HepG2 cells (FACScan); format: cell-based, human; details: HepG2, BBR 10 μg/ml overnight (18 h)
[3] = Liver histology (H&E and Oil Red O staining) in HFHC-fed hamsters; format: in vivo, Golden Syrian hamsters; details: BBR 1.8 mg/d
LDLR promoter = LDLR promoter dual luciferase reporter assay (pLDLR234Luc) in HepG2 cells; format: cell-based, human; details: HepG2, BBR or CND 15 μg/ml, 8 h
Procedure: FIG. 1E: Analysis of LDLR promoter activity: HepG2 cells were cotransfected with pLDLR234Luc and a normalizing vector pRL-SV40. […] Firefly luciferase and renilla luciferase activities were measured. The data represent normalized LDLR promoter activity.
Transient transfection and dual luciferase reporter assays. HepG2 cells were transfected with plasmid DNA (100 ng/well) by using FuGENE 6 transfection reagent. The DNA ratio of pLDLR234Luc (Li, C et al. J. Biol. Chem. 1999, 274: 6747-6753) to renilla luciferase reporter pRL-SV40 was 90:10. Twenty h after transfection, medium was changed to 0.5% FBS and drugs were added for 8 h prior to cell lysis. The luciferase activity in cell lysate was measured using Dual Luciferase Assay System obtained from Promega. Triplicate wells were assayed for each transfection condition.

Which “elevation of WBC caused by high fat diet” value ([1]; HFHC hamsters, both doses of goldenseal and BBR, p<0.05) does the source give for `COc1ccc2cc3[n+](cc2c1OC)CCc1cc2c(cc1-3)OCO2` [BBR, berberine] here?
Its value is “totally suppressed to the base line level”.

And the ALK ([1]; HFHC, BBR 1.8 mg/day (n = 5))?
Its ALK is 104 ± 59.

And the ALT ([1]; HFHC, BBR 1.8 mg/day (n = 5))?
The ALT was 181 ± 95.

What about the AST ([1]; HFHC, BBR 1.8 mg/day (n = 5)) of the same compound?
The AST was 102 ± 17.

And the BUN ([1]; HFHC, BBR 1.8 mg/day (n = 5))?
Its BUN is 18.6 ± 5.8.

And the GLUCOSE ([1]; HFHC, BBR 1.8 mg/day (n = 5))?
The GLUCOSE was 152 ± 35.

And the WBC ([1]; HFHC, BBR 1.8 mg/day (n = 5))?
The WBC was 2675 ± 1617.

What about the “liver function and kidney function” value ([1]; compared to HFHC fed control animals) of the same compound?
Its value is “not significantly changed”.

What about the “LDLR-mediated ligand (Dil-LDL) uptake increase compared to untreated cells” value [2] of the same compound?
The value was 2.5 fold.

What about the “hepatocyte morphology and liver steatosis (histology)” value [3] of the same compound?
The value was “Restoration of hepatocyte morphology and reduction of liver steatosis”.

And the LDLR promoter activity (LDLR promoter)?
The LDLR promoter activity was “not affected at all”.
